In the supplement of paper PMC11417369:
The other results are listed elsewhere or left out.

Test system: PfHDP1 homeodomain (GST-tagged)
Test: gcPBM binding intensity (ln(normalized median fluorescence intensity)); higher = stronger DNA binding
How it was run: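 Each value is the highest Masliner-normalised natural-log median intensity across replicate spots of either orientation of a probe. The probes were primer-extended double-stranded 36-bp intergenic genomic sequences on an Agilent 4 × 180k array, alongside negative controls, exposed for 1 h to GST-tagged P. falciparum DNA-binding domains expressed in E. coli. Bound protein was picked up with Alexa488 anti-GST antibody and scanned at 488 nm.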

Sequence	gcPBM binding intensity (ln)
GTAGACTGAAACCACACACACATATATATATATATT [CACACA_site605]	6.93
ATAATAAGACGATAAGGTACACAAAATGTTAATATA [XGTACX_site6984]	6.66
ATTTATATGGTTTGCACACATAACAACTATGGTTAT [CACACA_site3632]	10.2
TTTACACGTACGTGTACACACAAAAATATGTTTTTA [CACACA_site995]	6.8
GAAAGAAATAAAGGTGGTACATAAATAAAAACTAAG [XGTACX_site4826]	6.97
TGTAGTCTGGAGAAAAGTACATAGTATCTGGTAGCT [XGTACX_site2031]	6.17
AAATTCCACGGACACACACACATATAAATAAATAAA [CACACA_site4811]	6.98
AACATAAAAAAAATATGTACATATATAATATATATA [XGTACX_site3764]	7.24
TAAAATAAAAAGTTTACACACATATATAATTTTAAT [CACACA_site662]	6.24
GAATTATATAATTAAAGTACATTGTTTATATAATCA [XGTACX_site7246]	6.24
AACCATTTTAAATATGCACACAGATGCACTAACACA [CACACA_site8565]	10.5
ATATATATACTGTGTACACAAATATATATTATATAT [CACACA_site6104]	7.14
TAATTTTTCTTTTATTAACACACATATAAATAAATA [CACACA_site8935]	6.53
AAAAATAAAAAAAGCACACACATATAAATAAATATA [CACACA_site6968]	6.85
TATATGACAAGATAAAGTACAAATTTGTATATATAT [XGTACX_site3027]	7.11
ATATATTTATATATTACACACAATATTGTAGACATA [CACACA_site4669]	7
CCCAATAATTAAACAACACACATATTTATAGGTAAT [CACACA_site7445]	6.9
TTTTTTAAAGATTACTCAAAAAAATAAAAAAATAAA [GTGCAC_negctrl_site222]	6.27
TCGTGAGAAAATATTACACACATTTACTATAGTATC [CACACA_site3444]	6.34
TGAGTTCAACAAAGACGTACAAAACCAAAAATATAA [XGTACX_site8931]	6.75
TTTTTTTTTTTTTTTTGATACATTAACCTACAATGG [GTGCAC_negctrl_site625]	6.58
GATAATTTATTTTTTCGTACACAAAATATAATATAT [XGTACX_site1470]	6.45

Sequence	gcPBM binding intensity (ln)
TATATATCAAGACACACACACATATATTTATTTATA [CACACA_site7733]	6.99
TCCTTTCAACCATATATAATGACATGTACTCAAAAA [GTGCAC_negctrl_site417]	6.77
CATCCATATAAAATATGTACATATATATATATATAT [XGTACX_site5859]	9.39
TATTTTAGTAAAGGTGGTACTTTTAAGTTCATGTAT [XGTACX_site1854]	6.23
ATTATAAACCATAATTAACACACAAAATAAGTTACA [CACACA_site9057]	6.46
AAAAAAAAAGAAAAATGTACATACATAAATATATAT [XGTACX_site5664]	6.47
AAAAAAAAAAAAAAAAGTACACAAATAGATTTATAT [XGTACX_site3727]	6.48
ATTCTATTTTTTATAAAACCATGTCATCAACATAGG [CACACA_negctrl_site237]	6.7
GGTATACATAATACTTGTACTAGGCAACAATAAGAT [XGTACX_site1437]	6.89
AAGAAGAAAAACCATTGTACGAACTAACATATATAA [XGTACX_site3226]	6.58
TGTTAAAAGAAAAAAAGTACAAAAAATTATACATTT [XGTACX_site467]	5.93
AATATGAATATCTATACACACACATATATATACACA [CACACA_site8459]	6.8
ATTTGTGACCACACAAATAAATAAATAAAAAAAAAA [TGCATGCA_negctrl_site328]	6.14
ATATATTTATATTTGTGTACATATTTATTATATTTA [XGTACX_site404]	6.45
TAATAATAGAAACACACACACATTTTTAATAATACA [CACACA_site1216]	6.83
TATATATATATATTCACACATATAGTATTGTATTTA [CACACA_site5147]	9.1
TATATTTTATATTAGTGTACAAATTTCATTTTTCAT [XGTACX_site2204]	6.18
AATATATATAAAAAAGTGCATTAGGATAACCATATA [GTGCAC_site9590]	8.25
AATCATTTGTTATAAGTCTAAAATTATTAGAATATT [XGTACX_negctrl_site151]	6.26
TTCAATTTTTTAAAGCGTACATATAAAAGTTATATG [XGTACX_site731]	6.25
ATTATTACATATAATGCATGTGCATATATTTTTATA [TGCATGCA_site701]	11
AAATTTGGATGACTCAATAAATTATAATATATATAT [CACACA_negctrl_site298]	7.89

Sequence	gcPBM binding intensity (ln)
ATATTCTTTATATGCATACACACCTAATATAGGGAC [CACACA_site1533]	7.2
TTTTATCATCACATTTGTCAAAAAAAAAAAAAAAAA [CACACA_negctrl_site1296]	6.11
TTATAATAAAAAAATTCCTAAGTCCGTATATATTAT [CACACA_negctrl_site1698]	6.01
TTTTATTTTTATAACAGTACATAAGTAATTGTTCAA [XGTACX_site7574]	6.14
GATTTTATAATTTCTACACACATATAAGAATATTCA [CACACA_site2802]	6.55
TTATGTTCATTATATGCACACATATATATAAATGTA [CACACA_site8947]	9.74
ATATCAAACTAGAATGTGCGCATGCATTCAAGTTTT	6.54
TTTTTTTAAATATATAAGATAAATTTATAAATAAAT [XGTACX_negctrl_site282]	5.97
AAAAAAAATTTCTCAAGTACACAATTTTTTTTTGTT [XGTACX_site5874]	6.26
TTTTTTTTTTTTATATGTACTAATAATCTTTTTTTT [XGTACX_site3552]	6.4
GCTGAAAGGATAAAGGTGCATATTTTTTAAAAAATT [GTGCAC_site9487]	8.76
AATATTTTATATGTAGTGCATTACTATAGGATTTAT [GTGCAC_site9424]	9.25
ACAAAATAAACGGCTGCACACAAGAAGCACAATATT [CACACA_site3690]	7.45
TGTGTCAAATAATTAATGTCATATATATTTTGTATA [CACACA_negctrl_site1479]	6.11
TGCTTATATCTTATAATATTTATACATCATAATAAG [CACACA_negctrl_site629]	6.41
GATAGAAAAAAATAATGTACACACACATATATGTTT [XGTACX_site392]	6.48
GGCAGCAATTTAGTTACACACATATATAGGTATACA [CACACA_site76]	6.77
TATTTTTATTTTAATTGTACTTTTTAATTAATAATA [XGTACX_site8302]	6.35
TACACATACCCATACACACGCATAGAAACATACGAA [CACACA_site5212]	6.76
TTTCTTTTTTCTGTTATTATTATAAAACGATATTTA [TGCATGCA_negctrl_site167]	6.49
GCATATAAAATAAATCGTACATGTAAAACATAATTA [XGTACX_site7077]	6.41
AGATATATTTTTTAAATTTAAAAATTATAAAATTTA [CACACA_negctrl_site533]	6.13

Sequence	gcPBM binding intensity (ln)
AAATATATCTTCTTTGCACACTTAAAGGGAAGTGAT [CACACA_site343]	9.28
TATAATATAATATTTTGTACATATGATAAAAAAAAA [XGTACX_site6858]	6.38
ACACATATAAATAAAACATGCATATGTAAATATATA [TGCATGCA_site403]	6.6
TCAAAATGTTACAAATTATGTTGGCTAAAATTTTAA [TGCATGCA_negctrl_site188]	6.24
TTGAACCTGATAAATACACACAATATAGATTTTTTT [CACACA_site7091]	6.48
AATTATACTCACGTTACACACACACTATATATATAT [CACACA_site9375]	8.85
ATACATATTCTTATTTGTACTTATTATAAAATGGTC [XGTACX_site6584]	6.21
TAACTGATATATAAAACACACATCATAAAAATATAA [CACACA_site6499]	6.44
ACAATAATTTCCATCACACATATATTTATATATTAC [CACACA_site6003]	6.52
TTGCATCTACATTTATGTACATATCTTATGATAAAT [XGTACX_site2146]	6.54
TATATATGTATATATTTTATAAGTATGCAAGAAAAT [TGCATGCA_negctrl_site486]	7.15
ATATTGGAATAAATTTGTACATATATATATTATTCA [XGTACX_site916]	6.51
TTTTGTTATATACAATAGATCAGAAGAAATGAAGTT [CACACA_negctrl_site1579]	6.72
TTATAATATGTATACACACACATATATAAATATATA [CACACA_site2326]	6.69
CAATGTTAACATATTACACACATATGTATATAGAAT [CACACA_site2732]	7.08
CTTACGTATTAAGTGTGTCCGTAGTGTTCATAGTTC [XGTACX_site8913]	6.43
AAAATTTATAAAAGCACACAAAATAAAAAAAAATGA [CACACA_site1491]	6.9
TGTACGAGTCGTAGAGTGCAGTCTGGAGAAGAGTAC [GTGCAC_site9684]	6.86
AAAGTAAATTTAAGCACACACAACGAATTTTTATAC [CACACA_site1959]	6.84
TTTCAATAATAAAAAACACACACAAAAAAAAATAAT [CACACA_site8905]	7.27
AAAAATATAAACACCAGTACACAAACCTATAATGGA [XGTACX_site3846]	6.79
ACATAATGCTAGACACGTACGTACATCCGTGAGGTT [XGTACX_site4156]	6.52
